Data as given in PubChem BioAssay AID686978 (National Center for Advancing Translational Sciences (NCATS), 2013).
Out of some 420,000 compounds screened, about 64,000 (15%) were called active. Inconclusive means that the source gave no clear call. Such entries were picked first, then a sample of the others. The call rests on the fitted dose curve; in most records, active means well fitted inhibition curve with a large enough effect; inconclusive means small, poorly fitted or top-dose-only effect; inactive means flat fitted curve, though single readings scatter. Potencies of inconclusive entries are left out as doubtful fits.

Assay: qHTS for Inhibitors of human tyrosyl-DNA phosphodiesterase 1 (TDP1): qHTS in cells in absence of CPT; further: nearly all actives have a fitted effect of over 55% in size
Conditions: DT40 Tdp1-/- hTDP1 cells, no CPT, ATP luminescence, 48 h; activity change, negative = growth inhibition: at 46.2 µM (top of the series) unless noted
Method in brief: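 Readout: luminescence from CellTiter-Glo after 30 min in the dark at RT. Cells: DT40 Tdp1-/- with stable hTDP1, 400/well. Exposure: compounds alone, ≥48 hr, 37 °C.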
On the % scale 0 is the no-effect control and ±100 the full control effect; potency means the concentration at half of the fitted maximal effect; tags describe the fitted curve by direction and shape.

Row | SMILES | Potency | activity change, negative = growth inhibition
1 | CN(C)CCCN1c2ccc(O)cc2Sc2ccc(Cl)cc21 | inconclusive [inhibitor, single point] | 
2 | COC(=O)c1ccccc1NC(=O)NC1CC1 | inactive | 
3 | CCCCOc1ccc(C(=O)NCCc2sc(-c3cccc(F)c3)nc2C)cc1 | inconclusive [inhibitor, single point] | 
4 | CC(=O)OC[C@@H]1CN(Cc2ccccc2)C[C@H](n2cnc3c(NC4CCC4)ncnc32)O1 | inconclusive [inhibitor, single point] | 
5 | O=C(Nc1ccc(NC(=O)c2cccs2)cc1)c1cccc(Br)c1 | inconclusive [inhibitor, partial curve] | 
6 | CC(C)(C)c1csc(NC(=O)c2cccnc2)n1 | inconclusive [inhibitor, single point] | 
7 | NC(=O)Nc1ccc(C(=O)OCC(=O)Nc2cccc(S(=O)(=O)NC3=NCCC3)c2)cc1 | inactive | 
8 | C(=N\Nc1nc2ccccc2[nH]1)/c1cccc2nccnc12 | active: 4.11 µM | 
9 | Cc1ccc(NS(=O)(=O)c2cc(C(=O)N3CCOCC3)ccc2C)cc1 | inactive | 
10 | COc1ccc2oc(N)nc2c1 | inactive | 
11 | CCN(C(=O)COC(=O)c1ccc2ccccc2c1)c1c(N)n(Cc2ccccc2)c(=O)[nH]c1=O | inconclusive [inhibitor, single point] | 
12 | CC(=O)Nc1ccc(CN(C)c2c(C)nc3ccc(C(=O)N4CCN(c5ccccc5)CC4)cn23)cc1 | inconclusive [inhibitor, single point] | 
13 | CCC(CO)Oc1cc(NCc2ccccc2)c2ncn(C3CCCC3)c2c1 (stereo unspecified) | inconclusive [inhibitor, single point] | 
14 | CCn1c(=O)c(CCC(=O)N2CCN(c3ccccn3)CC2)c(C)c2c(C)nn(-c3ccccc3)c21 | active: 20.6 µM | 
15 | CC(C)N(C(=O)CSc1n[nH]c(=O)n1CCc1ccccc1)C(C)C | inconclusive [inhibitor, partial curve, poor fit] | 
16 | Cc1cc(SCC(=O)O)nc2ccccc12 | inactive | 
17 | O=C(CCNC(=O)c1ccc(Cl)cc1)NCCC1=CCCCC1 | inconclusive [inhibitor, single point] | 
18 | Cc1cccc(CNC(=O)C(C)n2nc(C)c3c(C)n(-c4ccccc4)nc3c2=O)c1 (stereo unspecified) | inactive | 
19 | COc1ccccc1-c1cn[nH]c1-c1ccc(OCc2ccccc2)cc1O | inconclusive [inhibitor, partial curve] | 
20 | Cc1ccc(NC(=O)N2CCN(c3ncccc3C(F)(F)F)CC2)cc1 | inconclusive [inhibitor, full curve, poor fit] | 
21 | COC(=O)CN1C(=O)[C@H]2[C@@H](c3ccc(C)o3)N3C(=O)CN(CC4CC4)C(=O)[C@@]3(Cc3ccccc3)[C@H]2C1=O | inactive | 
22 | Cc1cc(/C([O-])=C(/C(=S)Nc2ccccc2)[n+]2ccccc2)c(C)n1-c1ccccc1 | inconclusive [inhibitor, single point] | 
23 | Cc1cccc(Nc2nc(N)nc(CN3CCN(c4ccccc4F)CC3)n2)c1 | inconclusive [inhibitor, single point] | 
24 | OCCN1CCN(C(=S)c2ccc(Cl)cc2)CC1 | inactive | 

Row | SMILES | Potency | activity change, negative = growth inhibition
25 | CC(C)(C)C(=O)Nc1ccccc1N1CCN(c2ccc(F)cc2)CC1 | inconclusive [inhibitor, partial curve] | 
26 | N#CC1=C(N)Oc2nc(-c3ccccc3)[nH]c2C1c1cccnc1 (stereo unspecified) | inconclusive [inhibitor, single point] | 
27 | CCOc1ccc(-c2nc(CSCC(=O)NC3CC3)c(C)o2)cc1 | inconclusive [inhibitor, single point] | 
28 | Cc1nonc1C1CCCN1Cc1cn[nH]c1-c1ccc(-c2ccccc2)cc1 (stereo unspecified) | inconclusive [inhibitor, partial curve] | 
29 | COc1ccc(OC)c(N(CC(=O)NC2CC2)S(=O)(=O)c2ccc(C)cc2)c1 | inconclusive [inhibitor, partial curve] | 
30 | CCc1ccc(NC(=O)c2ccc(F)c(S(=O)(=O)N(C)C3CCCCC3)c2)cc1 | active: 20.6 µM | 
31 | COc1cc(NC(=O)c2cccs2)c(OC)cc1NC(=O)CCC(=O)Nc1ccc2ncccc2c1 | inconclusive [inhibitor, single point] | 
32 | O=C(C[n+]1csc2ccccc21)c1cccc([N+](=O)[O-])c1 | active: 10 µM | 
33 | CCOc1ccccc1C1CC(c2ccc(F)cc2)Nc2nc(N)nn21 (stereo unspecified) |  | inconclusive: -34% [inhibitor]
34 | CCCN(CCC)Cc1cc(=O)oc2cc(OC)c(Cl)cc12 | inconclusive [inhibitor, single point] | 
35 | O=C(C1CCCN(S(=O)(=O)c2ccc(Br)s2)C1)N1CCN(c2ccc(F)cc2)CC1 (stereo unspecified) | active: 11.6 µM | 
36 | O=c1cc(-c2ccc(F)cc2)nc(SCc2nc(-c3cccc(Cl)c3)no2)[nH]1 | inconclusive [inhibitor, single point] | 
37 | O=C(c1ccncc1)N1CCC[C@@]2(CCN(c3ccccn3)C2)C1 | inactive | 
38 | CSCCC(NS(=O)(=O)c1ccc(C)cc1)C(=O)N1CCN(C(c2ccccc2)c2ccccc2)CC1 (stereo unspecified) | inconclusive [inhibitor, single point] | 
39 | CN(C)c1cccc(NC(=O)c2ccc(-c3ccc(F)c(F)c3)c3ccoc23)c1 | inconclusive [inhibitor, single point] | 
40 | Cc1ccc(S(=O)(=O)N(C)C)cc1NC(=O)COC(=O)C1(c2ccccc2)CC1 | inconclusive [inhibitor, single point] | 
41 | O=C(c1cccc(F)c1)N1CCC2(CCCN(c3ccncc3)C2)CC1 | inconclusive [inhibitor, single point] | 
42 | Cc1ccc(C2CC(=O)N(Cc3ccccc3)c3c2c(C)nn3-c2nc(C)cc(C)n2)cc1 (stereo unspecified) | inconclusive [inhibitor, single point] | 
43 | COc1cc(OC)c(OC)cc1CN1CCCC(c2nc(C)ncc2-c2ccc(F)cc2)C1 (stereo unspecified) | inconclusive [inhibitor, partial curve] | 
44 | O=C(N1CCC(n2nc(-c3ccccc3)oc2=O)CC1)C1(c2ccccc2)CC1 | inconclusive [inhibitor, single point] | 
45 | Oc1ccc(-c2nccc(-c3ccccn3)n2)cc1 | inactive | 
46 | O=C(c1ccccc1-c1nc(-c2ccccc2Cl)no1)N1CCOCC1 | inactive | 
47 | COc1ccc(NC(=O)Cc2c(Sc3ccccc3)c3ccccc3n2C)cc1 | inconclusive [inhibitor, partial curve] | 
48 | O=C(NCC(c1ccco1)N1CCc2ccccc2C1)c1ccc([N+](=O)[O-])cc1 (stereo unspecified) | active: 23.1 µM | 

Row | SMILES | Potency | activity change, negative = growth inhibition
49 | Cc1ccc2c(=O)cc(C(=O)Nc3sc4c(c3C(N)=O)CCCC4)oc2c1 | inactive | 
50 | O=C(C1CCN(S(=O)(=O)Cc2ccccc2)CC1)N1CCN(c2ccc(F)cc2)CC1 |  | inconclusive: -31.1% [inhibitor]
51 | O=C(Nc1ccc2ccccc2c1)c1ccc(NS(=O)(=O)c2ccc(Br)s2)cc1 | inactive | 
52 | CC[C@H](C)Cc1cn([C@@H](CCCN=C(N)N)C(=O)NCCCCCCCCCCC(=O)N2CCNCC2)nn1 | inactive | 
53 | c1ccc(Cc2noc(CN3CCC(CN4CCOCC4)CC3)n2)cc1 | inconclusive [inhibitor, single point] | 
54 | Cc1ccc(C)n1-c1c(C(=O)NCCCN2CCN(c3ccc(F)cc3)CC2)sc2ncccc12 | inconclusive [inhibitor, single point] | 
55 | N#Cc1ccc(-c2ccccc2)nc1Sc1ccc(F)cc1 | inactive | 
56 | CCCCN(Cc1ccco1)S(=O)(=O)c1csc(C(N)=O)c1 | inconclusive [inhibitor, single point] | 
57 | O=C(c1c(F)c(F)c(F)c(F)c1F)N1CCN(c2cccc(C(F)(F)F)c2)CC1 | active: 18.4 µM | 
58 | Cn1c(N)c(C(=O)CSc2nn(-c3ccc(F)cc3)c(=S)s2)c(=O)n(C)c1=O | active: 23.1 µM | 
59 | CC(=O)N1CCN(C(=O)c2cc(-c3ccc(C)o3)nc3ccccc23)CC1 | inconclusive [inhibitor, partial curve] | 
60 | Nc1ccc(C=C2C=Cc3ccccc32)cc1 | inactive | 
61 | CCN(C(=O)COC(=O)/C=C/c1cnc2ccccc2n1)c1ccccc1 | inactive | 
62 | CCOc1ccc(Cc2nnc(SCC(=O)c3ccc(OC)cc3)o2)cc1 | inconclusive [inhibitor, partial curve] | 
63 | CN(C(=O)COc1ccccc1)c1nc(-c2ccc(F)cc2)cs1 | inactive | 
64 | CCOC(=O)c1c(C)[nH]c(C(=O)OC)c1CCC(=O)OC | inconclusive [inhibitor, single point] | 
65 | CNC(=O)c1ccsc1NC(=O)c1ccc(Cl)s1 | inconclusive [inhibitor, single point] | 
66 | O=C(CN1CCN(S(=O)(=O)c2ccccc2)CC1)NCc1ccccc1 | inactive | 
67 | Cc1cc(C)c2nc(NC(=O)C3CCCO3)sc2c1 (stereo unspecified) | inactive | 
68 | Cc1cc(C)nc(SCC(=O)NC(=O)c2ccccc2O)n1 | inactive | 
69 | Cc1ccc(/C(N)=N/OC(=O)c2cc(-c3ccccc3)nc3ccccc23)cc1 | inconclusive [inhibitor, partial curve] | 
70 | CCc1nn(C(C)C(=O)N2CCN(Cc3ccccc3)CC2)c(=O)c2cc3occc3n12 (stereo unspecified) | inconclusive [inhibitor, single point] | 
71 | COc1ccc(C(=O)C2CCCN(Cc3nc4ccccc4nc3C)C2)cc1OC (stereo unspecified) | inconclusive [inhibitor, partial curve, poor fit] | 
